# Over roughly 110,000 compounds, “z-score” has its median near -0.1; the highest 2% begin near 2. Some of the results follow. Activity calls are given as the source filed them.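 The calls were made as follows: active = z-score in the third read window above 3 or below -3; inactive = the rest.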
# Biological target: Metabotropic glutamate receptor 8 (Rattus norvegicus) (UniProt P70579)
# Experiment: mGluR8 Gi/Go-coupled signaling modulation – cell-based, rat, thallium flux, HTS, primary screen (AID 488969)
# Settings: HEK293 rat mGluR8, GIRK (G protein-gated inwardly rectifying potassium channel) thallium flux, FluoZin2; at 10 µM; stronger effect = higher value; submaximal glutamate (EC20) added with thallium
# UniProt P70579, sequence (P70579 whole entry, looked up): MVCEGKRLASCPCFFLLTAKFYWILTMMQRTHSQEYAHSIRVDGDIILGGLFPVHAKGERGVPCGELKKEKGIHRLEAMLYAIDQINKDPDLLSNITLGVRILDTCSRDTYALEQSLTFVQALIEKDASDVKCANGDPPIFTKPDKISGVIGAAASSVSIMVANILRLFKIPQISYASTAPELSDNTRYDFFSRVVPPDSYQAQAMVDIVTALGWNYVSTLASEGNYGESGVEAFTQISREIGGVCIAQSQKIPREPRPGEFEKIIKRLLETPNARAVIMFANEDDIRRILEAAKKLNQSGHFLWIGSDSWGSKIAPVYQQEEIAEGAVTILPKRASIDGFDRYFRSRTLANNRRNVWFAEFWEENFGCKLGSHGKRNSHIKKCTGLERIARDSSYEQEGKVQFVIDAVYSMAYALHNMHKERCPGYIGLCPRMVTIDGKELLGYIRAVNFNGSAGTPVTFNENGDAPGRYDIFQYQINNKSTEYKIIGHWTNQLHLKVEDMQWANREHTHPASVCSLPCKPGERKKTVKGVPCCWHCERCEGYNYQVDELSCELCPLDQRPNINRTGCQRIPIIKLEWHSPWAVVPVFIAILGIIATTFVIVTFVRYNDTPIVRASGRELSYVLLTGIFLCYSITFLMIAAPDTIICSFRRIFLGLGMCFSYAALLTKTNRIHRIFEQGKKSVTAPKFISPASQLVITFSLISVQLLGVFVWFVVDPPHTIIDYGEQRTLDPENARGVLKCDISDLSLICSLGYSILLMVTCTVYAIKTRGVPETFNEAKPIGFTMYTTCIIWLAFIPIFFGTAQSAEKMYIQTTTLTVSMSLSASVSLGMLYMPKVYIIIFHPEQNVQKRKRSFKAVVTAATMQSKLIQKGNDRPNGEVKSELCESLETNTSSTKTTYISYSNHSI
row,Compound,z-score
1,COc1ccc(Nc2ccc(S(=O)(=O)N3CCCCC3)cc2[N+](=O)[O-])cc1OC,2.43
2,Cc1cccc(C)c1N1C(=O)C2ON(c3ccccc3)C(c3ccncc3)C2C1=O (stereo not drawn),-0.179
3,O=C(/C=C/c1cccc([N+](=O)[O-])c1)N1CCN(c2ccc(F)cc2)CC1,-0.449
4,O=C(Nc1ccccc1)C1Cc2ccccc2CN1C(=O)c1ccco1 (stereo not drawn),-0.0831
5,CCOC(=O)C1=C(C)Nc2sc(C(=O)c3ccc(C)cc3)c(N)c2C1c1ccc(C(=O)OC)cc1 (stereo not drawn),-0.284
6,CC1CCCC(NC(=O)COC(=O)CSc2ccc3ccccc3c2)C1C (stereo not drawn),-0.0113
7,Cc1cc(C(=O)COC(=O)C2=NNC(=O)CC2)c(C)n1-c1cccc(C(F)(F)F)c1,-0.144
8,Cc1nn(CCC(=O)NNC(=S)NCC(C)C)c(C)c1Br,1.47
9,CC(=O)c1cc2c(cc1NC(=O)CN1CCOCC1)OCO2,0.0756
10,Cc1ccc(-c2nc3ccccc3[nH]2)cc1NC(=O)c1sc2ccccc2c1Cl,-0.199
11,Cc1c(OCc2ccccc2)c(=O)ccn1Cc1ccccc1,-0.292
12,COc1ccc(NC(=O)CN(Cc2ccccc2)S(C)(=O)=O)cc1,-0.474
13,O=C(CC12CC3CC(C1)CC(CC(=O)NC1=NCCS1)(C3)C2)NC1=NCCS1,-0.0995
14,CC(NC(=O)c1nn(C)c(=O)c2ccccc12)c1ccccc1 (stereo not drawn),-0.0131
15,O=C(COc1ccc2ccccc2c1Br)N1CCN(c2ccccn2)CC1,-0.134
16,COc1ccccc1NCCC(=O)OCC(=O)NC1CC1,-0.43
17,Cc1cc(C(=O)Nc2nnc(-c3ccccc3)s2)no1,0.114
18,Cn1c(NCc2ccco2)nc2c1c(=O)n(Cc1ccc(Cl)c(Cl)c1)c(=O)n2C,0.384
19,Cc1ccc(Oc2ccc(OCC(=O)NC(C)C(=O)O)cc2)cc1 (stereo not drawn),-0.304
20,CSCCC(C(=O)Nc1ccc2c(c1)OCO2)N1C(=O)c2ccccc2C1=O (stereo not drawn),0.0184
21,O=C(NC12CC3CC(CC(C3)C1)C2)c1ccccc1O,0.112
22,CCOC(=O)c1c(NC(=O)c2ccccc2N(C)S(=O)(=O)c2ccccc2)sc2c1CCCC2,-0.168
23,COc1ccc(-n2nnnc2SCC(=O)Nc2nnc(C)s2)cc1,0.0962

row,Compound,z-score
1,Cc1ccc(S(=O)(=O)NCCc2nnc3ccc(SCC(=O)Nc4nc5ccccc5s4)nn23)cc1,0.128
2,CCN(Cc1ccccc1)S(=O)(=O)c1cc(C(=O)NCC2CCCCC2)ccc1OC,0.00418
3,Cc1noc(C)c1CSc1nc2ccccc2c(=O)n1-c1ccc(F)cc1F,-2.63
4,CCCn1c(SCC(=O)Nc2cc(S(=O)(=O)N3CCOCC3)ccc2OC)n[nH]c1=O,-1.01
5,O=C(NCc1ccco1)c1cccc(NC(=O)c2ccco2)c1,-0.396
6,CC(C)Oc1ccc(-c2nn(-c3ccccc3)cc2/C=c2\sc3ncnn3c2=O)cc1,0.267
7,Cc1occc1C(=O)NNC(=O)Cc1ccccc1,-0.102
8,Cc1cc(=O)n2[nH]c(-c3ccc(C(C)(C)C)cc3)cc2n1,0.0684
9,O=C(CSc1ccc2nnc(-c3ccccc3)n2n1)N1CCCc2ccccc21,-1.37
10,CC(C)(C)NS(=O)(=O)c1ccc(CCC(=O)O)cc1,0.132
11,Cn1cnc(S(=O)(=O)Nc2ccc(C(F)(F)F)cc2)c1,-0.0366
12,CCN1CCN(CCNC(=O)CS(=O)(=O)Cc2nc(-c3ccc(C)cc3)oc2C)CC1,-0.313
13,O=S(=O)(c1ccc(N2CCOCC2)cc1)N1CCOCC1,0.51
14,CCOc1nc2ccccc2nc1C,0.275
15,CC(C)(C)c1ccc(OCC(=O)Nc2ccc(-c3nc4cccnc4o3)cc2)cc1,0.734
16,CC(=O)c1cccc(N(CC(=O)NCC2CCCO2)C(=O)CCC(=O)Nc2cc(C)on2)c1 (stereo not drawn),-0.0378
17,CCOC(=O)N1CCN(C2OC(=O)c3ccccc32)CC1 (stereo not drawn),-0.364
18,CCOC(=O)c1cnn(-c2cc(Oc3ccccc3C)ncn2)c1N,-0.0538
19,N#Cc1ccc(NC(=O)COC(=O)CNC(=O)C2CCCCC2)cc1,-0.185
20,c1ccc(-c2nnc(-c3ccccn3)nc2NC2CCCCC2)cc1,-0.00506
21,C=CCNC(=O)c1onc(CSc2ccccc2C)c1C(=O)O,-0.163
22,O=C(CN1CCN(S(=O)(=O)c2ccc(Br)cc2)CC1)N/N=C/c1cc([N+](=O)[O-])ccc1Cl,-0.0772
23,COc1ccc(C2Nc3ccccc3C(=O)N2c2ccccc2)cc1COc1ccccn1 (stereo not drawn),-0.422

row,Compound,z-score
1,COc1ccc(Cl)cc1NC(=O)CC(C)c1ccccc1 (stereo not drawn),-0.123
2,COc1ccc([N+](=O)[O-])cc1N(CC(O)CN(C)C)S(=O)(=O)c1ccccc1 (stereo not drawn),-0.00357
3,CC(C)c1ccc(NC(=O)C(c2ccc3c(c2)OCO3)N2CCCCC2)cc1 (stereo not drawn),-0.435
4,O=c1cc(CN2CCOCC2)nc(C2CC2)[nH]1,active: 5.57
5,O=C1/C(=C\c2ccc3c(c2)OCO3)CCC/C1=C/c1ccc2c(c1)OCO2,0.0229
6,O=C(O)c1cc(-c2ccccc2)on1,0.699
7,O=C(Nc1cccc(Cl)c1)c1ccncc1,0.103
8,O=C(COC(=O)c1ccc([N+](=O)[O-])s1)NCc1ccccc1,-0.333
9,COc1ccc(C(=O)Nc2nc3cc(OC)c(OC)cc3c(=O)[nH]2)cc1,-0.0152
10,COc1cc(N=c2c([N+](=O)[O-])nn(-c3ccc4c(c3)OCCO4)n2O)cc(OC)c1,-0.0958
11,O=S(=O)(Nc1ncn[nH]1)c1ccc2ccccc2c1,-0.0482
12,CC(C)Nc1oc(Cc2cccc3ccccc23)nc1C#N,-0.618
13,Nn1c(SCC(=O)Nc2ccc3c(c2)OCO3)nnc1C1CCCCC1,-0.221
14,Cc1cc(C)c(S(=O)(=O)c2ccccc2C)c(Cl)n1,-0.119
15,Cc1ccc(S(=O)(=O)NC2=NCN(Cc3cccnc3)CN2)cc1,1.08
16,O=C(Nc1ccc(Cc2ccncc2)cc1)C1CC1,0.555
17,N#Cc1ccsc1NC(=O)CN1CCN(S(=O)(=O)c2cc(Cl)ccc2Cl)CC1,0.00396
18,C=C1C(=O)O[C@H]2C1CC[C@@](C)(O)C13C=CC(C)(C21)C1(C3)C(=O)O[C@@H]2C3C(C)=CCC3[C@](C)(O)C[C@H](OC(C)=O)C21 (stereo partly drawn),-0.257
19,Cc1ccc(Cl)c(OCC(=O)Nc2ccc3c(c2)OCCO3)c1,-0.513
20,CC(=S)/C=C1\Sc2ccccc2N1C,0.0196
21,O=S(=O)(c1ccccc1)c1nc(-c2ccccc2Cl)oc1NCCN1CCOCC1,0.0264
22,CCn1cc(Br)c(C(=O)N2CCN(c3ccccc3)CC2)n1,0.339

# From PubChem BioAssay AID488969 (Vanderbilt High Throughput Screening Facility, 2010)
